Test results taken from paper PMC4336329 (PLoS ONE, 2015).
The campaign covered roughly 310,000 compounds. About 2,200 (0.71%) showed an effect of 50% or more. Effects have a minus sign here. The list shows a part of the results.

These compounds were tested against human ether-à-go-go-related gene (hERG) potassium channel (human, UniProt Q12809) (assay: primary screen, population patch clamp on CHO cells stably expressing hERG).
Chain of human ether-à-go-go-related gene (hERG) potassium channel (Q12809 whole entry, looked up): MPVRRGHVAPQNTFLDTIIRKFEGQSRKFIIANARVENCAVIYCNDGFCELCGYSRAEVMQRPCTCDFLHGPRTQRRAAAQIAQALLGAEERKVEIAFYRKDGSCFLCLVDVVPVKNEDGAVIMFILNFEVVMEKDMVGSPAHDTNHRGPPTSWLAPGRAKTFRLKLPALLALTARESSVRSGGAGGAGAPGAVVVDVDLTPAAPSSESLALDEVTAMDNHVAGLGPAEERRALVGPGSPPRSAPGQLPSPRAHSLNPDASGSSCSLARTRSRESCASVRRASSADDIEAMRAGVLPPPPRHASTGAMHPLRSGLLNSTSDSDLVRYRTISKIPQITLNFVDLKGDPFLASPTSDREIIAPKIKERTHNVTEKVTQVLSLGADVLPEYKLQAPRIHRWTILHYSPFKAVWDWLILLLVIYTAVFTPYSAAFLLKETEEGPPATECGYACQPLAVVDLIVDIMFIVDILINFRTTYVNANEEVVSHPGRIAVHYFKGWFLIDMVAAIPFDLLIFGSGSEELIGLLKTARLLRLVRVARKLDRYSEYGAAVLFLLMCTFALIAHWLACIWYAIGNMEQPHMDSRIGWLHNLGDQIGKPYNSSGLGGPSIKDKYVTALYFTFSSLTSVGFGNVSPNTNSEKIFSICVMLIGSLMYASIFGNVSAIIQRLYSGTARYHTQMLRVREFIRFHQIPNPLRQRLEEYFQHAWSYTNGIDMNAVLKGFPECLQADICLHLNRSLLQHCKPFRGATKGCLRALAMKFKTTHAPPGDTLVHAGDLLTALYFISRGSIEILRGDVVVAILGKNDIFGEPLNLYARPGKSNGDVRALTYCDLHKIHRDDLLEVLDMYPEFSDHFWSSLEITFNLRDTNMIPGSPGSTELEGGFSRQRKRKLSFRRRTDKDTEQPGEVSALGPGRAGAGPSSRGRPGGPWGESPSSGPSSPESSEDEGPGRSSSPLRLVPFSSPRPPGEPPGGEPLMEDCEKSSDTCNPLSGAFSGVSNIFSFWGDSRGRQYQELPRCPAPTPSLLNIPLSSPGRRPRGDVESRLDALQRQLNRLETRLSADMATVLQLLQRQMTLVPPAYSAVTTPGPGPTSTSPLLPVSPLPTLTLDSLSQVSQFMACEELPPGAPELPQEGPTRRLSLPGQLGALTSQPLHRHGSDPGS

SMILES	hERG current change (%, negative = inhibition) at 1uM
Cc1ccc(C)c(NC(=O)CN(C)C(=O)c2ccccc2OCc2c(C)noc2C)c1	1.9%
O=C(Cc1ccccc1)N/N=C/c1cccs1	11.7%
O=C(CN(Cc1ccccc1Cl)C(=O)c1ccc(CN2CCOCC2)o1)NCc1ccccc1	-15.4%
CCc1ccc(CN2CCC(n3nccc3NC(=O)Cc3ccccc3)CC2)o1	1.07%
Cc1ccc(C)c(C(=O)COC(=O)CN2C(=O)C3C4C=CC(C4)C3C2=O)c1 (centres unmarked)	17.8%
CSc1ccc(CNCc2ccco2)cc1.Cl	7.26%
O=c1cc(COn2nnc3ccc(C(F)(F)F)cc32)nc2sccn12	12.3%
O=C(NC1=NCCS1)c1ccccc1Br	14.2%
Cc1ccc(NC(=O)CSc2ncnc3ccccc23)cc1S(=O)(=O)N1CCCCC1	0.777%
CCc1c(C)nc(SCC(=O)N2C(C)CCCC2C)[nH]c1=O (centres unmarked)	20.8%
COc1ccc(CNC(=O)c2cc(S(=O)(=O)N3CCCC3)cn2C)cc1	12.7%
C/C(=N\NC(=O)c1ccc(Cn2cc([N+](=O)[O-])cn2)o1)c1cccc(NC(=O)c2cccnc2)c1	14%
CCOC(=O)C1(CC2CC2)CCN(S(=O)(=O)/C=C/c2ccccc2)CC1	7.93%
Br.COc1ccc(-c2csc(Nc3ccc(O)cc3)n2)cc1	10.5%
COC(=O)C(NC(C)=O)(Nc1sc2c(c1C(N)=O)CCCC2)C(F)(F)F (centres unmarked)	10.4%
CN(C)C(=O)C1C2NC(=S)N(c3ccccc3)C1(C)Oc1ccccc12 (centres unmarked)	2.05%
CCCOc1ccc(Cl)cc1CN1CCOCC1.Cl	3.67%
CCCn1c(Nc2nc3ccccc3n2C)nc2ccccc21	14.2%
CN(C)c1ccc(C(=S)N2CCCCC2)cc1Br	14.1%
CCOC(=O)C1CCN(C(=O)C2(NC(=O)Nc3ccccc3C)CCCCC2)CC1	18.6%
N#Cc1c(Cn2cncn2)nc(=O)n(-c2ccccc2)c1N	16.9%
COc1cccc(C2c3[nH]c4ccccc4c3CCN2Cc2ncc[nH]2)c1 (centres unmarked)	-4.72%
O=C1COc2ccc(S(=O)(=O)N3CCN(c4cccc(C(F)(F)F)c4)CC3)cc2N1	10.8%

SMILES	hERG current change (%, negative = inhibition) at 1uM
O=C(Nc1c2c(nc3c1CCC3)CCCC2)c1ccccn1	3.08%
COc1ccc(CNC(=S)N/N=C(/C)c2ccccc2)cc1	3.45%
COc1ccc(OCCCC(=O)Nc2cc([N+](=O)[O-])ccc2C)cc1	7.16%
Cc1cc(C)c(S(=O)(=O)Nc2ccc[nH]c2=O)c(C)c1	6.12%
Cc1ccc(CNC(=O)Cc2cccs2)cc1	13.1%
CC(C)NC(=O)C12CC3CC(C1)CC(n1cnc(Cl)n1)(C3)C2	4.43%
CC(C)NS(=O)(=O)c1ccc(CCC(=O)N2CCCCC2)cc1	11.5%
Cc1cc(NS(=O)(=O)c2ccc(NC(=S)NC(=O)c3ccc(Cl)cc3Cl)cc2)no1	-5.55%
O=C1c2c(O)cc(O)cc2O[C@H](c2ccc(O)c(O)c2)[C@@H]1O	17%
CC(C)C[C@H]1COCCS(=O)(=O)N1Cc1cccc(C(F)(F)F)c1	5.39%
c1ccc(-c2cnc(CSc3nnc4ccccn34)o2)cc1	7.23%
O=C(NC1(Cc2ccccc2)CCN(CCc2cccs2)C1=O)c1ccccc1 (centres unmarked)	6.99%
Cc1ccc(S(=O)(=O)N[C@H](C(=O)N2CCC(C(=O)N[C@@H](CCC(N)=O)C(=O)O)CC2)C(C)C)cc1	10.6%
C/C(=N\OCc1ccc(C#N)cc1)c1cc2ccccc2o1	2.29%
CC(NC(=O)c1ccccc1)C(=O)NC1=NCCS1 (centres unmarked)	6.66%
CCCN1C(=O)c2cc(C(=O)Nc3ccccc3C)ccc2C1Nc1ccccc1C (centres unmarked)	10.3%
CCN(/C=N/c1sc2c(c1C#N)CC(C)(C)NC2(C)C)CC	20.8%
O=C(N/N=C/c1ccccn1)c1cc(-c2ccccc2)nc2ccccc12	2.19%
CCOC(=O)c1ccc(S(=O)(=O)NCC(c2ccc(N(C)C)cc2)c2c[nH]c3ccccc23)cc1 (centres unmarked)	9.97%
O=C(NCCc1ccccn1)c1nc(Cn2cc([N+](=O)[O-])cn2)no1	10%
O=C(Cn1c(=O)c(=O)n(Cc2ccccc2)c2ccc(Cl)cc21)Nc1cc(F)ccc1F	1.47%
COc1ccc(N/N=C(/C(C)=O)N2CCCc3ccccc32)cc1	6.79%
CNC(C)C#Cc1c(-c2cc(OC)c(OC)c(OC)c2)noc1C (centres unmarked)	6.63%

SMILES	hERG current change (%, negative = inhibition) at 1uM
O=S1(=O)CCC(NC(=S)Nc2ccc3ccccc3c2)C1 (centres unmarked)	11.6%
COc1cccc(CN2CCN(Cc3cccn3-c3cccnc3)CC2CCO)c1 (centres unmarked)	-62.2%
O=C(O)C1=C[C@@H](c2ccc(F)cc2)C[C@@H](OCCCCO)O1	11.2%
CC(=O)N/C(=C\c1ccccc1)C(=O)OCc1cc(C)ccc1C	-17.7%
Cc1cc(C)nc(/N=C(\N)Nc2ccc(S(=O)(=O)Nc3nc(C)cc(C)n3)cc2)n1.Cl	3.6%
Cc1nc2sc(C(c3ccco3)N3CC(C)OC(C)C3)c(O)n2n1 (centres unmarked)	-0.598%
CCOC(=O)c1ccc(NC(=O)CSc2nc3c(c(=O)n2C)SC(C)C3)cc1 (centres unmarked)	6.66%
COc1ccc(C2=NOC(C(=O)Nc3cccnc3)C2)cc1 (centres unmarked)	11.3%
Cc1ccccc1NC(=O)CSc1nc2n(n1)CCCCC2	13.5%
CSCC[C@@H](C(=O)NCCCCCCCCCCC(=O)N1CCN(C(=O)OC(C)(C)C)CC1)n1cc(CCO)nn1	10.6%
CCSc1ncc(CO)c(N)n1	5.68%
CCC(C)c1ccc(S(=O)(=O)N2CCN3CCCC3C2)cc1 (centres unmarked)	10.8%
CC(C)(C)NC(=O)CN1C(=O)/C(=C/c2ccccc2)SC1=S	4.79%
COc1ccc(CNC(=O)CS(=O)Cc2nc(-c3ccc(OC)c(OC)c3)oc2C)cc1 (centres unmarked)	10.7%
CCOC(=O)C1CCCCN1Cc1ccc(OC)c(OC)c1 (centres unmarked)	10.9%
COC(=O)/C=C/c1ccc(OC(=O)OC)c(OC(=O)OC)c1	11.6%
COc1ccc(C2C(C(C)=O)=C(C)Nc3ncnn32)c(OC)c1OC (centres unmarked)	3.37%
COc1ccc(OC)c(NC(=O)C2CCC(CNc3c(N4CCOCC4)c(=O)c3=O)CC2)c1 (centres unmarked)	13.4%
CC(C)Cc1ccc(C(C)C(=O)OCC(=O)c2c[nH]c3ccccc23)cc1 (centres unmarked)	15.1%
COC(=O)c1c(NC(=O)c2ccc(Br)o2)sc(C)c1C	8.15%
Cc1ccc(N2C(S)=C(C#N)C(=O)NC2c2cccs2)cc1 (centres unmarked)	8.78%
CN(C)CC(C)(C)CNS(=O)(=O)CC12CCC(CC1=O)C2(C)C (centres unmarked)	9.27%
Cc1c(NCc2cc(Cl)cc(Cl)c2O)c(=O)n(-c2ccccc2)n1C	9.66%

SMILES	hERG current change (%, negative = inhibition) at 1uM
COc1ccc(-c2c(C)nc3c(-c4ccsc4)cnn3c2N)cc1	7.64%
COC(=O)C1ON2OC(C(=O)OC)C(C(=O)OC)C2C1CC(C)=O (centres unmarked)	16.6%
CC(=O)NCC(O)c1ccc([N+](=O)[O-])cc1 (centres unmarked)	9.31%
O=C(COc1ccc(Cl)cc1)N1CCN(C2CCCC2)CC1.O=C(O)C(=O)O	-68.4%
C(#Cc1ccc2c(c1)COc1c3ccccc3nn1-2)c1ccccc1	-5.1%
CCN1CCC(O)(c2ccccc2)C(C(=O)c2ccccc2)C1 (centres unmarked)	1.95%
Cc1c(Cl)cccc1NC(=O)CN1CCC(C(O)(c2ccccc2)c2ccccc2)CC1	-0.413%
COC(=O)c1csc(S(=O)(=O)N2CCCCC2)c1OC	3.59%
CCc1ccc(C2N(c3ccc(OC)cc3)C(=O)C3CCCN32)cc1 (centres unmarked)	2.49%
NC(=O)Cn1cc(C=C2C(=O)NC(=O)NC2=O)c2ccccc21	15%
CCOc1ccc(N2CC(C(=O)Nc3nnc(C4CCCCC4)s3)CC2=O)cc1 (centres unmarked)	-13.2%
CCc1nnc(NC(=O)[C@@H](NC(=O)c2cccc(S(=O)(=O)N3CCOCC3)c2)C(C)C)s1	-1.33%
CC1CN(CC(=O)Nc2cccc(C(=O)Nc3cccc(C(F)(F)F)c3)c2)CC(C)O1 (centres unmarked)	-6.35%
Cn1c(C(=O)NCCOc2ccccc2Cl)cc(=O)n(C)c1=O	9.81%
Cc1c(C(=O)OCC(=O)N(C)C2CCS(=O)(=O)C2)oc2ccc(Br)cc12 (centres unmarked)	-9.89%
O=C(/C=C/c1ccc(S(=O)(=O)N2CCOCC2)cc1)NCc1ccccc1	-2.19%
CCn1c(COc2cccc(C)c2)nc2ccccc21	3.8%
CN1CCC[C@H]1c1cccnc1.O=C(O)C(O)C(O)C(=O)O	9.62%
CCOc1ccc(C2NC(=O)NC(C)=C2C(=O)OCc2ccccc2)cc1 (centres unmarked)	10.6%
CCC(=O)Nc1nnc(-c2ccncc2)s1	19.6%
